Source: the supplement of paper PMC4723716
± gives the uncertainty stated by the source. The full ranking holds about 9,900 compounds; the median of “viability index relative to DMSO control” is about 1, and the lowest 2% start at about 0.85. The list shows a part of the results.

System: Plasmodium falciparum NF54 stage V gametocytes
Assay: viability index relative to DMSO control (fraction); higher = less gametocyte killing
Conditions: 2.5 µM, incubation time: 72 h
Summary of the method: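 Compound at 2.5 µM was incubated for 72 hr at 37°C under low oxygen with P. falciparum NF54 stage V gametocytes (0.75% gametocytemia, 1.25% hematocrit, 10 µl, serum-free screening medium) in 1,536-well plates. Staining used 3 µl of 2.5 µM MitoTracker Red CMXRos plus 0.13% saponin for one to two hours, and red particles of 20–70 µm2 were counted in one imaged field per well. Each viability index is that count relative to the plate mean of solvent-only wells.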

[1] = library set: Broad Institute DOS

Compound | viability index [1] | viability index (library set: Broad Institute Blood Stage)
Cc1noc(C)c1S(=O)(=O)N(C)C[C@H]1OCCCC[C@H](C)Oc2ccc(NC(=O)CCC(F)(F)F)cc2C(=O)N([C@@H](C)CO)C[C@@H]1C | 1.02 ± 0.024 | 
C/C=C/c1ccccc1[C@@H]1[C@@H](C#N)N(C(C)=O)[C@@H]1CO | 1.14 ± 0.046 | 
O=C(C[C@H]1CC[C@H](NC(=O)C2CC2)[C@H](CO)O1)Nc1ccccc1 | 0.992 ± 0.033 | 
COCCNC(=O)[C@@H]1[C@@H](CO)[C@@H]2Cn3c(ccc(C4=CCCCC4)c3=O)[C@H]1N2Cc1cocn1 | 0.983 ± 0.054 | 
NCC[C@@H]1CC[C@@H](NC(=O)NC2CCCCC2)[C@H](CO)O1 | 1.02 ± 0.047 | 
C[C@@H]1CCCCO[C@@H](CN(C)Cc2ccc(C(=O)O)cc2)[C@H](C)CN([C@@H](C)CO)C(=O)c2cc(N(C)C)ccc2O1 | 1.13 ± 0.093 | 
COc1ccc2c3c([nH]c2c1)[C@@H](CO)N(Cc1ccccc1F)C[C@]31CCN(CC1)C(=O)C1CC1 | 0.93 ± 0.081 | 
O=C(C[C@@H]1CC[C@@H](NC(=O)c2cccnc2)[C@@H](CO)O1)NCc1ccc(Cl)c(Cl)c1 | 0.965 ± 0.045 | 
C[C@H]1CN([C@@H](C)CO)C(=O)c2c(c3ccccc3n2C)-c2ccccc2CO[C@@H]1CN(C)C(=O)Nc1cccc(C(F)(F)F)c1 |  | 0.871 ± 0.045
COc1ccccc1NC(=O)N1C[C@@H](O)COC[C@H]2O[C@@H](CC(=O)NCCc3ccncc3)CC[C@@H]21 | 1.07 ± 0.0041 | 
CC(=O)N(Cc1cccc(F)c1)C[C@H]1[C@@H](c2ccccc2)[C@@H](CO)N1C(C)=O | 0.98 ± 0.075 | 
C/C=C/c1ccc([C@@H]2[C@@H](CO)N(C(C)=O)[C@H]2CNC(=O)c2ccccc2)cc1 | 1 ± 0.024 | 
O=C1CNC[C@H]2[C@@H](c3ccc(C#Cc4cccnc4)cc3)[C@@H](CO)N12 | 1.01 ± 0.059 | 
COCC(=O)N1CC2(C1)[C@@H](c1ccccc1)[C@@H](CO)N2CCC(F)(F)F | 1.1 ± 0.17 | 
CO[C@H]1CN(C)C(=O)c2ccc(NS(=O)(=O)CC(F)(F)F)cc2OC[C@@H](C)N(Cc2nccs2)C[C@H]1C | 1.07 ± 0.14 | 
CC(C)C(=O)Nc1ccc2c(c1)C(=O)N(C)[C@H]1CC[C@H](CC(=O)NCCc3ccccc3)O[C@H]1CO2 | 1.09 ± 0.053 | 
CN(C)CCCNC(=O)C[C@H]1CC[C@H]2[C@@H](COC[C@@H](O)CN2CC2CC2)O1 | 1.02 ± 0.053 | 
CO[C@@H]1CN(C)C(=O)c2cc(NC(=O)NC3CCCCC3)ccc2OC[C@@H](C)N(CC2CCOCC2)C[C@H]1C | 1.08 ± 0.084 | 
COc1cccc(C(=O)Nc2ccc3c(c2)C(=O)N(C)[C@H]2CC[C@@H](CC(=O)N[C@@H](C)c4ccccc4)O[C@H]2CO3)c1 | 1.1 ± 0.12 | 
Cc1cc(C(=O)Nc2cccc3c2O[C@@H](CN(C)C)[C@@H](C)CN([C@H](C)CO)C3=O)n(C)n1 | 1.08 ± 0.027 | 
C[C@H]1CN([C@@H](C)CO)S(=O)(=O)c2ccc(-c3ccncc3)cc2O[C@H]1CN(C)S(C)(=O)=O | 1.023 ± 0.0035 | 
C[C@@H]1COCn2nncc2CC[C@H](Cc2cccc(Cl)c2)C(=O)N1 | 1.09 ± 0.051 | 
O=C1C[C@@H](c2ccccc2)C(=O)N[C@H](c2ccc3c(c2)OCO3)C/C=C\C[C@@H](c2ccc(F)cc2)N1 | 1.07 ± 0.063 | 

Compound | viability index [1] | viability index (library set: Broad Institute Blood Stage)
CCCC#Cc1ccc2c(c1)[C@@H]1[C@@H](CCN1Cc1cncnc1)[C@@H](CO)N2 | 1.048 ± 0.0064 | 
CCCNC(=O)N1CC(=O)N2[C@H](CO)[C@@H](c3ccc(-c4ccc(F)cc4)cc3)[C@@H]2C1 | 1.03 ± 0.013 | 
CC(=O)N1CCCCN2[C@H](CO)[C@@H](c3ccc(-c4ccccc4)cc3)[C@H]2C1 | 0.985 ± 0.059 | 
CCS(=O)(=O)N(C)C[C@@H]1N[C@H](CO)[C@@H]1c1ccc(C2=CCCCC2)cc1 | 0.947 ± 0.079 | 
COc1ccc(NC(=O)Nc2ccc3c(c2)[C@H]2C[C@H](CC(=O)NCC(F)(F)F)O[C@@H](CO)[C@H]2O3)cc1 | 0.986 ± 0.012 | 
O=C(C[C@@H]1CC[C@H]2[C@@H](COC[C@H](O)CN2S(=O)(=O)c2ccccc2)O1)NCC1CCCCC1 | 1.005 ± 0.0034 | 
COc1ccccc1-c1cnc2c(c1)C(=O)N([C@@H](C)CO)C[C@@H](C)[C@@H](CN(C)C(=O)CC1CC1)O2 | 1.05 ± 0.079 | 
C[C@@H]1CCCCO[C@H](CN(C)C(=O)c2ccncc2)[C@H](C)CN([C@H](C)CO)C(=O)c2cc(NS(=O)(=O)c3cccs3)ccc2O1 | 1.09 ± 0.059 | 
COc1ccc(CNC(=O)C[C@@H]2C[C@H]3c4cc(N(C)C)ccc4O[C@H]3[C@@H](CO)O2)cc1 | 1.12 ± 0.03 | 
COc1ccc(NC(=O)N[C@@H]2CC[C@H](CCNC(=O)CN3CCOCC3)O[C@@H]2CO)cc1 | 0.894 ± 0.025 | 
COc1cccc(-c2ccc3c(c2)[C@H]2[C@H](CCN2S(=O)(=O)C2=NC(C)C=N2)[C@@H](CO)N3C)c1 (stereo partly specified) | 1.06 ± 0.021 | 
O=C(C[C@@H]1CC[C@H](NC(=O)C2CC2)[C@H](CO)O1)Nc1ccccc1 | 0.916 ± 0.036 | 
Cc1noc(C)c1S(=O)(=O)N(C)C[C@@H]1Oc2c(NS(=O)(=O)c3cn(C)cn3)cccc2C(=O)N([C@@H](C)CO)C[C@@H]1C | 1 ± 0.028 | 
CCS(=O)(=O)Nc1ccc2c(c1)C(=O)N(C)[C@@H]1CC[C@H](CC(=O)NCc3ccc(OC)cc3)O[C@H]1CO2 | 1.01 ± 0.078 | 
COCC(=O)Nc1ccc2c(c1)[C@H]1C[C@@H](CC(=O)N3CCOCC3)O[C@H](CO)[C@H]1O2 | 1.07 ± 0.037 | 
C[C@@H]1CN([C@H](C)CO)C(=O)c2cc(NS(=O)(=O)c3cn(C)cn3)ccc2O[C@@H](C)CCCCO[C@H]1CN(C)Cc1ccc2c(c1)OCO2 | 1.09 ± 0.047 | 
CN(C)C(=O)c1cccc(-c2ccc3n(c2=O)C[C@@H]2[C@@H](CO)[C@H](C(=O)NCC4CC4)N[C@H]32)c1 | 0.973 ± 0.024 | 
CN(C)C(=O)c1ccc(-c2ccc([C@H]3[C@H](C#N)N(C(=O)C4CC4)[C@H]3CO)cc2)cc1 | 1.14 ± 0.039 | 
COc1ccc2c3c([C@H](CO)N(Cc4ccc(Cl)cc4)C[C@]33CCN(CC4CC4)CC3)n(C)c2c1 | 0.901 ± 0.069 | 
COc1ccc2c3c([nH]c2c1)[C@@H](CO)N(Cc1ccccn1)C[C@]31CCN(CC1)C(C)=O | 0.975 ± 0.18 | 
COc1cccc(NC(=O)N2C[C@H](O)COC[C@@H]3O[C@H](CC(=O)N(C)C)CC[C@H]32)c1 | 0.982 ± 0.081 | 
COc1cccc(-c2ccc3c(c2)[C@H]2[C@H](CCN2C(=O)c2ccccn2)[C@@H](CO)N3)c1 | 1.02 ± 0.068 | 
COCC(=O)Nc1ccc2c(c1)C(=O)N(C)C[C@H](OC)[C@@H](C)CN(CCc1ccccc1)[C@@H](C)CO2 | 1.05 ± 0.037 | 
